{
  "source": "PubChem BioAssay AID652106",
  "about": "(National Center for Advancing Translational Sciences (NCATS), 2013)",
  "note": "Among all 370,000 compounds or so, about 500 (0.14%) were called active. Inconclusive means that the source gave no clear call. Such entries were picked first, then a sample of the others. The call rests on the fitted dose curve; in most records, active means well fitted activation curve with a large enough effect; inconclusive means small, poorly fitted or top-dose-only effect; inactive means no such curve, though single readings can be large or run the other way. No potency is given beside an inconclusive call; the fits are too rough. Potency means the concentration at half of the fitted maximal effect; tags describe the fitted curve by direction and shape.",
  "data": [
    {"test": "qHTS of alpha-syn Inhibitors; further: nearly all actives have a fitted effect of over 65% in size; on growth rescue (activation): % of control where 0% means no effect", "conditions": "Yeast expressing alpha-synuclein, BacTiter-Glo, 24 h; Potency: growth rescue unless noted; growth rescue (activation): at 46.1 µM (top of the series) unless noted", "method_in_brief": "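Screening used galactose-induced yeast with toxic alpha-synuclein levels, exposed to compound for 24 hr at 30 deg C. Cell growth, read with BacTiter-Glo luminescence, gave the measured signal.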", "values": [
      {"smiles": "Cc1ccc(Cl)cc1N1CCN(S(=O)(=O)c2ccc3c(c2)CC(=O)N3C)CC1", "growth rescue (activation)": "inactive: 0.549%"},
      {"smiles": "COCCNS(=O)(=O)c1cc(Br)ccc1OC", "Potency": "inconclusive [activator, single point]"},
      {"smiles": "Cc1c(C(=O)N2CCCC(C)(C(=O)NS(=O)(=O)C3CC3)C2)oc2ccccc12", "note": "(stereo not drawn)", "Potency": "inconclusive [activator, single point]"},
      {"smiles": "CCCCCC(=O)N1C[C@@H](n2cc(C3CC3)nn2)[C@H](O)C[C@@H]1c1ccc(C)cc1", "Potency": "inconclusive [activator, single point]"},
      {"smiles": "O=C(Cc1cccs1)NNC(=S)NC(=O)c1ccccc1", "Potency": "inconclusive [activator, single point]"},
      {"smiles": "Clc1ccc(N2CCN(c3ccnc(Cl)n3)CC2)cc1", "Potency": "inconclusive [activator, single point]"},
      {"smiles": "O=C(CC(CC(=O)c1ccccc1)c1ccco1)c1ccccc1", "Potency": "inconclusive [activator, single point]"},
      {"smiles": "O=C(Nc1ccc(/C=C/c2nc3ccccc3o2)cc1)c1cccc(C(F)(F)F)c1", "growth rescue (activation)": "inactive: -6.4%"},
      {"smiles": "COc1ccc(NS(=O)(=O)c2cccc(-c3nnc(-c4ccccc4)o3)c2)cc1", "growth rescue (activation)": "inactive: 6.72%"},
      {"smiles": "CC1(C)N=C(SCC(=O)Nc2ccc(Cl)cc2)C(c2ccc(Cl)cc2)=N1", "growth rescue (activation)": "inactive: -10.1%"},
      {"smiles": "CNC(=S)N(CCc1c(C)[nH]c2ccc(F)cc12)Cc1ccco1", "Potency": "inconclusive [activator, single point]"},
      {"smiles": "O=C(COc1ccccc1C(=O)Nc1ccccc1)Nc1ccc(Br)cc1", "growth rescue (activation)": "inactive: 8.57%"},
      {"smiles": "COc1ccccc1NC(=O)c1ccc(-c2nn(C)c(=O)c3ccccc23)cc1", "growth rescue (activation)": "inactive: 15.7%"},
      {"smiles": "COc1ccc(C(=O)CC(Sc2ccccc2N)c2ccc(OC)cc2)cc1", "note": "(stereo not drawn)", "Potency": "inconclusive [activator, single point]"},
      {"smiles": "COc1ccc(COC(=O)C2=C(C)NC(=O)NC2c2ccccc2)cc1", "note": "(stereo not drawn)", "growth rescue (activation)": "inactive: 2.73%"},
      {"smiles": "S=C(NCCCc1cnc[nH]1)NCCCN(CCc1ccc(Cl)cc1)c1ccc(Br)cn1", "growth rescue (activation)": "inactive: -34.2%"},
      {"smiles": "CCOc1cc(C(=S)N2CCN(C)CC2)ccc1OCC(=O)N1CCOCC1", "growth rescue (activation)": "inactive: -6.81%"},
      {"smiles": "CCn1c(=O)cc(C(=O)OC)sc1=Nc1ccc(F)c(F)c1", "Potency": "inconclusive [activator, single point]"},
      {"smiles": "CCOC(=O)C1=C(COC(=O)c2ccc([N+](=O)[O-])s2)NC(=O)NC1C", "note": "(stereo not drawn)", "growth rescue (activation)": "inactive: -73.8%"},
      {"smiles": "S=C1NC[C@H](Cc2ccccc2)N1CCc1cccc2ccccc12", "Potency": "inconclusive [activator, single point]"},
      {"smiles": "Oc1ccccc1Oc1ncc(Br)c(N2CCOCC2)n1", "Potency": "inconclusive [activator, single point]"},
      {"smiles": "CCCCC[C@H]1CN(Cc2ccccc2)C(=O)[C@@H]1CC(=O)NCc1ccccc1", "Potency": "inconclusive [activator, single point]"},
      {"smiles": "CCC(=O)N1Cc2cc(C(=O)N(C)C)nc(-c3cccc(-c4cncnc4)c3)c2[C@@H]1CCO", "Potency": "inconclusive [activator, single point]"},
      {"smiles": "COc1cccc2c1OC1(N3CCOCC3)CCCCC1C2C[N+](=O)[O-]", "note": "(stereo not drawn)", "Potency": "inconclusive [activator, single point]"},
      {"smiles": "Cc1oc(=O)c(NC(=O)c2cccc(Cl)c2)cc1C(=O)c1ccccc1", "growth rescue (activation)": "inconclusive: -68.2% [activator]"},
      {"smiles": "CC(C)(C)C(=O)O/N=C1/C(=O)N(c2ccccc2)c2ccccc21", "Potency": "active: 7.08 µM"},
      {"smiles": "Cc1ccc(C)c(S(=O)(=O)N2CCN(c3ncccn3)CC2)c1", "Potency": "inconclusive [activator, single point]"},
      {"smiles": "Oc1ccc2ccccc2c1/C=N/Nc1nnc(-c2ncc[nH]2)c2ccccc12", "Potency": "inconclusive [activator, single point]"},
      {"smiles": "CC1CC(C)CN(S(=O)(=O)c2ccc3c(c2)NC(=O)C(C)C(=O)N3)C1", "note": "(stereo not drawn)", "Potency": "inconclusive [activator, single point]"},
      {"smiles": "COc1ccc(C(O)c2nc(-c3cccc4cccnc34)cs2)cc1", "note": "(stereo not drawn)", "Potency": "inconclusive [activator, single point]"},
      {"smiles": "CC1(C(=O)NCc2ccc(Cl)cc2)CCN1C(=O)Cc1cccc2ccccc12", "note": "(stereo not drawn)", "Potency": "inconclusive [activator, single point]"},
      {"smiles": "Cn1ncc(S(=O)(=O)Cc2ccccc2)c(Cl)c1=O", "Potency": "inconclusive [activator, single point]"},
      {"smiles": "CCC(C)[C@@H](NC(=O)OC(C)(C)C)c1nnc(S(=O)(=O)Cc2cccc(C)c2)o1", "note": "(stereo partly drawn)", "growth rescue (activation)": "inactive: 6.88%"},
      {"smiles": "CC(C)(C)CNC(=O)C1(C)CCN1C(=O)Cc1ccc(-c2ccccc2)cc1", "note": "(stereo not drawn)", "Potency": "inconclusive [activator, single point]"},
      {"smiles": "COc1ccc(-c2ccc(=O)n(Cc3cc(=O)n4ccccc4n3)n2)cc1", "Potency": "inconclusive [activator, single point]"},
      {"smiles": "N/C(=N\\OC(=O)CCCc1ccccc1)c1cccnc1", "growth rescue (activation)": "inactive: 7.61%"},
      {"smiles": "C=C1CCC(N(O)c2cc(C)on2)C(=C)CCC2C1CC2(C)C", "note": "(stereo not drawn)", "Potency": "inconclusive [activator, full curve]"},
      {"smiles": "CCN(C(=O)COc1ccc2ccc(=O)oc2c1)C1CCCCC1", "growth rescue (activation)": "inactive: 8.63%"},
      {"smiles": "CN(CC(O)CON=C1c2ccccc2-c2ccccc21)S(=O)(=O)c1ccc(Br)cc1", "note": "(stereo not drawn)", "Potency": "inconclusive [activator, single point]"},
      {"smiles": "COc1ccc(C(=O)/C=C/Nc2c(C)n(C)n(-c3ccccc3)c2=O)cc1OC", "Potency": "inconclusive [activator, single point]"},
      {"smiles": "OC(COc1ccc(Cl)cc1)CN1C2=NCCCN2c2ccccc21", "note": "(stereo not drawn)", "growth rescue (activation)": "inactive: 5.76%"},
      {"smiles": "Cc1oc(C(C)(C)C)cc1C(=O)N1CCN(c2ncccc2C(F)(F)F)CC1", "Potency": "inconclusive [activator, single point]"},
      {"smiles": "Cc1ccc(C(=O)NC(=O)CSc2nnc(C)s2)cc1", "Potency": "inconclusive [activator, single point]"},
      {"smiles": "Cc1nc(Nc2ccccc2F)c2oc3ccccc3c2n1", "growth rescue (activation)": "inactive: 0.277%"},
      {"smiles": "Cc1cccc(Cc2cnc(N3C(=N)SC(C)C3=O)s2)c1", "note": "(stereo not drawn)", "Potency": "active: 10 µM"},
      {"smiles": "O=C(O)CCCCCN1C(=O)/C(=C\\c2ccc(-c3ccc(Cl)cc3)o2)SC1=S", "Potency": "inconclusive [activator, single point]"},
      {"smiles": "COCCOc1ccc(C(F)(F)F)cc1NC(=O)COC(=O)Cc1c[nH]c2ccccc12", "Potency": "inconclusive [activator, single point]"},
      {"smiles": "N/C(CSc1ccc(Cl)cc1)=N\\S(=O)(=O)c1ccc(Cl)cc1", "Potency": "inconclusive [activator, single point]"},
      {"smiles": "O=C(NC1CCCCC1)[C@@H]1CC=C[C@@H]2CCN(C3CCCCC3)C(=O)[C@@H]21", "Potency": "inconclusive [activator, single point]"},
      {"smiles": "C=CCN(C(=O)COC(=O)c1cc[n+]([O-])cc1)c1nc(-c2ccccc2)cs1", "Potency": "inconclusive [activator, single point]"},
      {"smiles": "CCOC(=O)c1cc(-c2ccccc2)nn1Cc1cc(C)no1", "Potency": "inconclusive [activator, single point]"},
      {"smiles": "CCOc1ccc(C2=NNC(c3cccs3)=Nc3ccc(OC)cc32)cc1", "growth rescue (activation)": "inactive: -1.04%"},
      {"smiles": "O=C(COC(=O)CNC(=O)c1ccccc1F)NC12CC3CC(CC(C3)C1)C2", "Potency": "inconclusive [activator, single point]"},
      {"smiles": "CCOC(=O)N1CCC(C(N)=O)CC1", "Potency": "inconclusive [activator, single point]"},
      {"smiles": "COc1cc(NC(=O)C2CC(=O)NC3=C2C(=O)CCC3)c(OC)cc1Cl", "note": "(stereo not drawn)", "Potency": "inconclusive [activator, single point]"},
      {"smiles": "NC(=S)N/N=C\\c1c2ccccc2cc2ccccc12", "Potency": "inconclusive [activator, single point]"},
      {"smiles": "c1ccc(CCCc2nc(-c3cccnc3)no2)cc1", "growth rescue (activation)": "inactive: 2.88%"},
      {"smiles": "COc1ccc(NC(=O)C(c2cc3ccccc3o2)n2c(=O)c(-c3cc4ccccc4[nH]3)nc3ccccc32)cc1", "note": "(stereo not drawn)", "Potency": "inconclusive [activator, partial curve]"},
      {"smiles": "COc1cc(N)ccc1Nc1c2ccccc2nc2ccccc12", "Potency": "inconclusive [activator, single point]"},
      {"smiles": "Cc1ccc(C(=O)OCC(=O)Nc2c(Cl)cc(S(N)(=O)=O)cc2Cl)o1", "Potency": "inconclusive [activator, single point]"},
      {"smiles": "CCOc1ccc(NS(=O)(=O)c2ccc(NC(=S)NC(=O)C(C)C)cc2)cc1", "Potency": "inconclusive [activator, single point]"},
      {"smiles": "CC(=O)Nc1ccc(NC(=O)C(C)OC(=O)c2ccccc2Sc2ccccc2C#N)cc1", "note": "(stereo not drawn)", "Potency": "inconclusive [activator, single point]"},
      {"smiles": "CC(C)[C@H](NC(=O)N1CCC(Cc2ccccc2)CC1)C(=O)O", "Potency": "inconclusive [activator, single point]"},
      {"smiles": "COc1ccc(C(=O)/C=C/Nc2ccc(S(N)(=O)=O)cc2)cc1OC", "growth rescue (activation)": "inactive: 25.4%"},
      {"smiles": "CCc1ccc(NS(=O)(=O)c2c(C)nc3sc(CC)nn3c2=O)cc1", "Potency": "inconclusive [activator, single point]"},
      {"smiles": "OC[C@@H]1CN(Cc2ccc(-c3ccccc3)cc2)C[C@H](n2cnc3c(Nc4ccccc4)ncnc32)O1", "Potency": "inconclusive [activator, single point]"},
      {"smiles": "S=c1[nH]nc(CSCc2ccc(Cl)cc2Cl)n1-c1ccccc1", "Potency": "inconclusive [activator, single point]"},
      {"smiles": "COc1ccc(C(=O)N/C(=C\\c2ccc([N+](=O)[O-])cc2)C(=O)NC(CCSC)C(=O)O)cc1", "note": "(stereo not drawn)", "growth rescue (activation)": "inactive: 6.38%"}
    ]}
  ]
}
